{"source": "paper PMC4336329", "about": "(PLoS ONE, 2015)", "note": "Hit rate of the full screen: of about 310,000 compounds, about 2,200 (0.71%) showed an effect of 50% or more. The effect is printed as a negative number. The list shows a part of the results."}
{"target": "human ether-à-go-go-related gene (hERG) potassium channel (human, UniProt Q12809)", "sequence (Q12809 whole entry, looked up)": "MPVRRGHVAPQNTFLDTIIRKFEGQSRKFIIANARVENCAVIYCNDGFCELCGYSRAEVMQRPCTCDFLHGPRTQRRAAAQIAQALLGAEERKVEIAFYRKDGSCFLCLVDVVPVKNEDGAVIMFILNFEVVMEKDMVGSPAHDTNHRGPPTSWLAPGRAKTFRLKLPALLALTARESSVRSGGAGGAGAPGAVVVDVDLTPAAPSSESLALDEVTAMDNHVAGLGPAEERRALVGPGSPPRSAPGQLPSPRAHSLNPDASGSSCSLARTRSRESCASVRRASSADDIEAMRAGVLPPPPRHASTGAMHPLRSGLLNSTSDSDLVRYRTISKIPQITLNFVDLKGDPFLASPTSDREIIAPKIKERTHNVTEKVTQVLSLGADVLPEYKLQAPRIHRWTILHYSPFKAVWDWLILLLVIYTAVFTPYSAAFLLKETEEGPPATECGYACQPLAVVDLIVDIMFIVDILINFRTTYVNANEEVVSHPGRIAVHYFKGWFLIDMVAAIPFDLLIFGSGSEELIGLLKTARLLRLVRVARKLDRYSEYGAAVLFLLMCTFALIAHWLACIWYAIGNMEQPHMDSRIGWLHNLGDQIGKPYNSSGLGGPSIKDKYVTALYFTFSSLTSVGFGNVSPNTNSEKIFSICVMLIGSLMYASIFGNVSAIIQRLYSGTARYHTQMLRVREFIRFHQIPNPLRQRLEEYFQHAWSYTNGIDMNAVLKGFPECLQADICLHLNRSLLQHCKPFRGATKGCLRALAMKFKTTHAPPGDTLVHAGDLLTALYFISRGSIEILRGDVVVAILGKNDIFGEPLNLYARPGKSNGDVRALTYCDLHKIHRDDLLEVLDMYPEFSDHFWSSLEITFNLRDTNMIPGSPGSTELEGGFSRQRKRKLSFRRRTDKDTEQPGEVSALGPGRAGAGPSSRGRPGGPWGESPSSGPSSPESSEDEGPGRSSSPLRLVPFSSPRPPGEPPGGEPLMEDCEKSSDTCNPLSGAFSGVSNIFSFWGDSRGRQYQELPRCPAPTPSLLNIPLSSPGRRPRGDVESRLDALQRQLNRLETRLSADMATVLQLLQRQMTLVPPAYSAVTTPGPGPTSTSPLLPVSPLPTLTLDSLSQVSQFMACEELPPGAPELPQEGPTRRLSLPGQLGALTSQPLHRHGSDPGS", "assay": "primary screen, population patch clamp on CHO cells stably expressing hERG", "units": {"hERG current change (%, negative = inhibition) at 1uM": "%"}}
{"smiles": "O=[N+]([O-])c1ccc(S(=O)(=O)NCC(c2cccnc2)N2CCOCC2)cc1", "note": "(stereo not shown)", "hERG current change (%, negative = inhibition) at 1uM": 5.9}
{"smiles": "CCn1c(=O)c(C(=O)CC#N)c(N)n(Cc2ccccc2)c1=O", "hERG current change (%, negative = inhibition) at 1uM": 11.2}
{"smiles": "COc1ccc(C(=O)NCc2nnc(SCC(=O)NCc3ccco3)o2)cc1", "hERG current change (%, negative = inhibition) at 1uM": 12.7}
{"smiles": "COc1ccc(C2Nc3ccccc3C(=O)N2c2ccccc2)cc1CN1CCOCC1", "note": "(stereo not shown)", "hERG current change (%, negative = inhibition) at 1uM": 7.54}
{"smiles": "Cn1nc(C(F)(F)F)c2cc(NC(=O)OCC(C)(C)C)sc21", "hERG current change (%, negative = inhibition) at 1uM": 7.95}
{"smiles": "O=C(CCc1nnc(CCCCc2ccccc2)o1)NCCN1CCOC1=O", "hERG current change (%, negative = inhibition) at 1uM": 9.65}
{"smiles": "CC(C)c1nc(SCC(=O)c2c[nH]c3ccccc23)n[nH]1", "hERG current change (%, negative = inhibition) at 1uM": 8.74}
{"smiles": "COc1ccccc1NC(=O)CC(NC1CCCCC1)C(=O)O", "note": "(stereo not shown)", "hERG current change (%, negative = inhibition) at 1uM": 11.9}
{"smiles": "COc1cccc(CN(C)C(=O)CSc2nc3ccccc3[nH]2)c1OC", "hERG current change (%, negative = inhibition) at 1uM": 12}
{"smiles": "Cc1ccc2cc(C#N)c(SCc3nnc(-c4ccccc4[N+](=O)[O-])o3)nc2c1", "hERG current change (%, negative = inhibition) at 1uM": 14.9}
{"smiles": "Cc1cc(Cl)ccc1OCC(=O)OCC(=O)N1CCC(C(N)=O)CC1", "hERG current change (%, negative = inhibition) at 1uM": 11.6}
{"smiles": "Cc1cc(C)c2c(=O)[nH]c(SCC(=O)Nc3cccc(S(=O)(=O)N(C)C)c3)nc2n1", "hERG current change (%, negative = inhibition) at 1uM": -14.6}
{"smiles": "CC(=O)N1CCc2cc(S(=O)(=O)CCC(=O)NCc3ccco3)ccc21", "hERG current change (%, negative = inhibition) at 1uM": 14}
{"smiles": "CCN(CC)c1ccc(/C=C2\\SC(=O)N(C(C)C)C2=O)o1", "hERG current change (%, negative = inhibition) at 1uM": 12.7}
{"smiles": "O=C(N/N=C/c1ccc[nH]1)c1ccccc1O", "hERG current change (%, negative = inhibition) at 1uM": 8.09}
{"smiles": "CCCCC(O)(CCCC)C(=O)NN(C(=O)OCC)c1ccccc1", "hERG current change (%, negative = inhibition) at 1uM": 17}
{"smiles": "Fc1ccc(CSc2nncn2NCc2ccc3c(c2)OCO3)cc1", "hERG current change (%, negative = inhibition) at 1uM": 7.43}
{"smiles": "Cc1ccc(CN(Cc2ccccc2)C(=S)NCC(=O)NCc2cccnc2)o1", "hERG current change (%, negative = inhibition) at 1uM": -14.9}
{"smiles": "CN1CCC(N(C)S(=O)(=O)c2ccc(NC(=O)COc3cccc(Cl)c3)cc2)CC1", "hERG current change (%, negative = inhibition) at 1uM": -2.07}
{"smiles": "CC(C)(C)NC(=O)Cn1c(SCC(=O)N2CCCCCC2)nc2ccccc21", "hERG current change (%, negative = inhibition) at 1uM": 10.4}
{"smiles": "O=C(CN1C(=O)NC(Cc2c[nH]c3ccccc23)C1=O)Nc1ccc(Br)cc1F", "note": "(stereo not shown)", "hERG current change (%, negative = inhibition) at 1uM": 9.26}
{"smiles": "CCN1C(=O)CC(N2CCC(Cc3ccccc3)CC2)C1=O", "note": "(stereo not shown)", "hERG current change (%, negative = inhibition) at 1uM": -3.34}
{"smiles": "Cc1ccc(C)c(N2CCN(S(=O)(=O)c3cn(C)cn3)CC2)c1", "hERG current change (%, negative = inhibition) at 1uM": 0.309}
{"smiles": "CCc1nc(SCC#N)c(C#N)cc1C", "hERG current change (%, negative = inhibition) at 1uM": 1.15}
{"smiles": "CCC(=O)N(C)CCc1cc2c(c(OC)c1/C=N/NC(=O)c1ccc(Br)cc1)OCO2", "hERG current change (%, negative = inhibition) at 1uM": 0.468}
{"smiles": "Cc1nc(NC(=O)c2ccc(OCC(C)C)cc2)sc1Cc1ccc2c(c1)OCO2", "hERG current change (%, negative = inhibition) at 1uM": 12.4}
{"smiles": "COc1cccc(C2C(C(N)=O)=C(C)Nc3nc(-c4ccccc4Cl)nn32)c1", "note": "(stereo not shown)", "hERG current change (%, negative = inhibition) at 1uM": 5.59}
{"smiles": "CC(OC(=O)c1ccccc1O)C(=O)Nc1cccc(Cl)c1", "note": "(stereo not shown)", "hERG current change (%, negative = inhibition) at 1uM": 7.22}
{"smiles": "O=[N+]([O-])c1ccc(N2CCOCC2)cc1NCc1ccccc1", "hERG current change (%, negative = inhibition) at 1uM": 4.41}
{"smiles": "N#Cc1c(N)nc2c3c(sc(=N)c2c1N)NC(=O)CC3c1c(F)cccc1Cl", "note": "(stereo not shown)", "hERG current change (%, negative = inhibition) at 1uM": -2.06}
{"smiles": "O=C(CCSCc1ccccc1Cl)NC1CCCC1", "hERG current change (%, negative = inhibition) at 1uM": 8.88}
{"smiles": "O=C(Nc1nc2n(n1)C(c1ccc(F)cc1)CC(c1ccccc1)N2)c1ccco1", "note": "(stereo not shown)", "hERG current change (%, negative = inhibition) at 1uM": 2.83}
{"smiles": "Cc1nc2sc(C)c(C)c2c(=O)o1", "hERG current change (%, negative = inhibition) at 1uM": 8.39}
{"smiles": "COCCNC(=O)CN1C2CCC1CC(O)(c1cccnc1)C2", "note": "(stereo not shown)", "hERG current change (%, negative = inhibition) at 1uM": 11.1}
{"smiles": "CCC(=O)N1N=C2CC(C)(C)OCC2C1c1ccccc1", "note": "(stereo not shown)", "hERG current change (%, negative = inhibition) at 1uM": 11.7}
{"smiles": "O=C(CSc1ccc2nnc(-c3ccccn3)n2n1)Nc1ccc2c(c1)OCO2", "hERG current change (%, negative = inhibition) at 1uM": 2.61}
{"smiles": "COc1ccc(-c2cc(C(=O)Nc3cc(C)ccc3O)no2)cc1", "hERG current change (%, negative = inhibition) at 1uM": 12.9}
{"smiles": "CCCCNc1ccccc1C(=O)OCC(=O)Nc1ccc(S(N)(=O)=O)cc1", "hERG current change (%, negative = inhibition) at 1uM": 0.586}
{"smiles": "CCOc1ccc(-n2c(SCC(=O)Nc3ccc(Br)cc3)nc3n[nH]c(C)c3c2=N)cc1", "hERG current change (%, negative = inhibition) at 1uM": 11.8}
{"smiles": "c1ccc(CC2CCN(c3nc4ccccc4n4cnnc34)CC2)cc1", "hERG current change (%, negative = inhibition) at 1uM": 5.45}
{"smiles": "CN(Cc1ccccc1)C(=O)CCC1CCN(C(=O)c2ccccc2C(F)(F)F)CC1", "hERG current change (%, negative = inhibition) at 1uM": 12.3}
{"smiles": "CCOC(=O)c1cc(-c2ccc(/C=C3/C(=O)NC(=O)C(C#N)=C3C)o2)ccc1Cl", "hERG current change (%, negative = inhibition) at 1uM": 11.1}
{"smiles": "COc1ccc(CNC(=O)COC(=O)c2cnccn2)cc1", "hERG current change (%, negative = inhibition) at 1uM": 11.7}
{"smiles": "Cc1ccc(S(=O)(=O)NC(N)=NCCc2ccccc2)cc1C", "hERG current change (%, negative = inhibition) at 1uM": -5.54}
{"smiles": "CC1CN(C(=S)Nc2ccccc2F)CC(C)O1", "note": "(stereo not shown)", "hERG current change (%, negative = inhibition) at 1uM": 15.7}
{"smiles": "CCc1noc(C)c1C(=O)Nc1ccc(C(F)(F)F)cc1", "hERG current change (%, negative = inhibition) at 1uM": -6.89}
{"smiles": "CN(C)c1cccc(NC(=O)CCc2ccccc2)c1", "hERG current change (%, negative = inhibition) at 1uM": 11}
{"smiles": "CCc1ccc(-c2ccc(SCc3ccccn3)nn2)cc1", "hERG current change (%, negative = inhibition) at 1uM": 15.1}
{"smiles": "CCC12CN3CCN(CC(C3)C1O)C2", "note": "(stereo not shown)", "hERG current change (%, negative = inhibition) at 1uM": -9.08}
{"smiles": "O=C1COc2ccc(C(=O)CSc3nnc(Cc4cccs4)n3-c3ccc(Cl)cc3)cc2N1", "hERG current change (%, negative = inhibition) at 1uM": -3.83}
{"smiles": "O=C(NCCc1ccccn1)c1cccc(S(=O)(=O)N2CCCCCC2)c1", "hERG current change (%, negative = inhibition) at 1uM": -6.66}
{"smiles": "CCc1ccccc1N(CC(=O)NC(C)c1ccccc1)S(C)(=O)=O", "note": "(stereo not shown)", "hERG current change (%, negative = inhibition) at 1uM": 16.4}
{"smiles": "CN1C2=NCCN2C(=O)c2ccccc21", "hERG current change (%, negative = inhibition) at 1uM": 0.514}
{"smiles": "O=C(C1=C(O)C(=O)N(CCN2CCOCC2)C1c1ccccc1)c1cccs1", "note": "(stereo not shown)", "hERG current change (%, negative = inhibition) at 1uM": 12.5}
{"smiles": "C=CCN1CCN(C(=O)c2cc3c(s2)CCC(CC)C3)CC1", "note": "(stereo not shown)", "hERG current change (%, negative = inhibition) at 1uM": -2.2}
{"smiles": "COC/C=C/C1=CC2=CC(=O)C(C)(OC(=O)c3cnc4ccccc4n3)C(=O)C2=CN1c1ccc(OC)cc1", "note": "(stereo not shown)", "hERG current change (%, negative = inhibition) at 1uM": 7.97}
{"smiles": "Cn1cnc2cc(NC(=O)c3ccc(Cl)cc3)ccc21", "hERG current change (%, negative = inhibition) at 1uM": 4.19}
{"smiles": "CCOC(=O)C1=C(C)NC(C)=C(C(=O)OCC)C1c1ccc([N+](=O)[O-])s1", "hERG current change (%, negative = inhibition) at 1uM": 10.4}
